Laboratory results from PubChem BioAssay AID1347077 (National Center for Advancing Translational Sciences (NCATS), 2019).
The whole screen tested about 44,000 compounds, of which fewer than 10 were called active. This list was built around the results that the source calls inconclusive (neither active nor inactive); the mix of calls is not that of the screen. Calls follow the shape of the dose curve; as a rule, active = well fitted activation curve with a large enough effect; inconclusive = small, poorly fitted or top-dose-only effect, or another doubt; inactive = no such curve, though single readings can be large or run the other way. No potency is given beside an inconclusive call; the fits are too rough.

Biological target: Beta-2 adrenergic receptor (Homo sapiens) (UniProt P07550)
Assay: qHTS assay of beta-arrestin-biased ligands of beta2-adrenergic receptor: NCGC Sytravon Library Screen
Settings: HTLA Tango cells, beta-arrestin recruitment, luciferase luminescence, 18 h; series mostly up to 46.1 µM
In short: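 Tango cells (recombinant beta2-AR, beta-arrestin, tTA-driven luciferase), 1500/well in DMEM 1% FBS, treated 18 h at 37 °C with compounds up to 46 µM; luciferin mix added, luminescence read after 15 min; %activity curves fitted and curve-classed.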
Potency is read from the fitted curve at half-maximal effect; tags tell the direction and shape of the fitted curve.

UniProt P07550, sequence (P07550 whole entry, looked up): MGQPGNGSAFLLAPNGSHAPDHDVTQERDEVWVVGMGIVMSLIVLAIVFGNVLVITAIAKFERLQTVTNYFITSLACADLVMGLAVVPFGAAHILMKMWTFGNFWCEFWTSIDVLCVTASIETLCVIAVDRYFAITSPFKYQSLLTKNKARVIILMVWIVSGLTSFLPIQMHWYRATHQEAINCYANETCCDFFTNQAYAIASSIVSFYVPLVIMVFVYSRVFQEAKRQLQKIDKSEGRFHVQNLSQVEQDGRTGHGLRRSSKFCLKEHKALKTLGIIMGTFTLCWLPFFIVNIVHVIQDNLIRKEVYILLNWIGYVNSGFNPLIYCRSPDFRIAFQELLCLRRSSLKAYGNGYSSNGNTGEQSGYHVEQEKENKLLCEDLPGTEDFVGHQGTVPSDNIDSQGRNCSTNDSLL

Row | Structure (SMILES) | Potency
1 | Cc1ccccc1-n1c(SCc2ccc(Cl)cc2)nc2[nH]ncc2c1=O | inconclusive [activator, partial curve, poor fit]
2 | Cc1ccc(-c2noc(CNC(=O)c3ccc(Br)o3)n2)cc1 | inconclusive [activator, partial curve, poor fit]
3 | CC(C)(C)c1ccc(NC(=O)C2CCCN(c3cnccn3)C2)cc1 (stereo not drawn) | inconclusive [activator, single point]
4 | Cc1ccccc1C(=O)c1cccn1CC(=O)NCc1ccccc1 | inconclusive [activator, partial curve, poor fit]
5 | CCc1ccc(CNC(=O)c2ccc(-n3c(C)cc4c3CCC(C)C4)cc2)cc1 (stereo not drawn) | inconclusive [activator, single point]
6 | COc1ccc(CCNC(=O)CCc2c(C)nc3c(c(C)nn3-c3ccc(C)cc3)c2C)c(OC)c1 | inactive
7 | COc1ccc(Cl)cc1NC(=O)CN(c1cc(C)cc(C)c1)S(=O)(=O)c1c(C)n[nH]c1C | inactive
8 | O=C(Cc1ccccc1)Nc1nnc2n1CCS2 | inconclusive [activator, partial curve, poor fit]
9 | COc1ccc(C2=C(C)C(=NCc3ccc(OC(C)C)cc3)NS2(=O)=O)cc1 | inconclusive [activator, partial curve, poor fit]
10 | Cc1nc(-c2ccc(S(=O)(=O)NCc3ccc(OC(C)C)cc3)cc2)co1 | inactive
11 | COc1ccc(CCN2CCC(CNC(=O)c3cnn(-c4cccc(Cl)c4)c3C3CCN(C(=O)OC(C)(C)C)CC3)CC2)cc1 | inactive
12 | Cc1c(CCNC(=O)C(C)(C)C)sc2nc(-c3ccc(F)cc3)nn12 | inconclusive [activator, single point]
13 | Cc1ccc(-c2c(CN3CCN(c4cccc(C)c4C)CC3)csc2C)cc1 | inconclusive [activator, partial curve, poor fit]
14 | COc1cccc(-c2cn3ncsc3n2)c1 | inactive
15 | CCC(CC)C(=O)Nc1cc(-c2ccccc2F)nn1-c1ccccc1 | inactive
16 | COc1ccccc1NC(=O)c1cnc(SCC(=O)N2CCOCC2)n(C)c1=O | inconclusive [activator, single point]
17 | CCC(=O)C1=C(c2ccc(F)cc2)N(C(=O)CC)n2c(nnc2-c2ccc(OC)cc2)S1 | inconclusive [activator, single point]
18 | Cc1cccc(C(c2sc3nc(-c4ccco4)nn3c2O)N2CCN(c3ccccc3)CC2)c1 (stereo not drawn) | inconclusive [activator, single point]
19 | COCCNC(=O)Cn1nc(N2CCN(c3ccccc3OC)CC2)ccc1=O | inactive
20 | CCc1ccc(NC(=O)CSc2nc(=O)n(Cc3ccco3)c3c2CCC3)cc1 | inconclusive [activator, single point]
21 | COc1ccc(C(=O)c2cn(Cc3ccc(C)cc3)c3cc4c(cc3c2=O)OCO4)cc1 | inconclusive [activator, single point]

Row | Structure (SMILES) | Potency
22 | CCCCN1C(C(=O)c2ccccc2)=C(OC(C)=O)c2ccccc2S1(=O)=O | inconclusive [activator, single point]
23 | CCCCCCOc1ccc(C2C(=O)N(C3CCCCC3)CC(=O)N2CCCC)cc1 (stereo not drawn) | inactive
24 | Cc1ccc(-c2noc(CCCC(=O)NCc3ccco3)n2)cc1 | inactive
25 | COc1ccccc1CNC(=O)CCC1N=C2c3ccccc3N=C(SCc3ccc(C)cc3)N2C1=O (stereo not drawn) | inconclusive [activator, single point]
26 | O=C(COc1ccccc1[N+](=O)[O-])Nc1cccc(-c2nc3ccccc3s2)c1 | inconclusive [activator, partial curve, poor fit]
27 | Cc1nnc(NC(=O)CSc2nc3c([nH]c4ccccc43)c(=O)n2-c2cccc(Cl)c2)s1 | inconclusive [activator, single point]
28 | O=C(NCc1ccccc1)c1cccc(N2CCCS2(=O)=O)c1 | inconclusive [activator, single point]
29 | COc1ccc(C(=O)COC(=O)CCCC(=O)Nc2ccc(C(C)=O)cc2)cc1 | inactive
30 | CCOC(=O)c1cc2c(=O)n3ccccc3nc2n(Cc2ccco2)c1=NC(=O)c1ccc(OC)cc1 | inconclusive [activator, partial curve, poor fit]
31 | COCCCNC(=O)c1ccc2nc(CCc3ccccc3)oc2c1 | inactive
32 | COc1ccc(C(=O)c2cn(CC(=O)Nc3ccc4c(c3)OCO4)c3ccc(OC)cc3c2=O)cc1 | inconclusive [activator, partial curve, poor fit]
33 | Cc1cccc(NC(=O)CSc2nc3c([nH]c4ccccc43)c(=O)n2-c2ccc(F)cc2)c1C | inconclusive [activator, partial curve]
34 | COc1ccc(NC(=O)CCS(=O)(=O)c2nc(-c3cccs3)cc(C(F)(F)F)n2)cc1OC | inconclusive [activator, single point]
35 | COc1ccc(C(=O)CN2CCN(S(=O)(=O)c3ccc(C(C)C)cc3)CC2)cc1 | inactive
36 | CCc1ccc(-c2nc(CN3CCC(C(=O)NCCc4ccc(Cl)cc4)CC3)c(C)o2)cc1 | inconclusive [activator, single point]
37 | O=C(O)c1ccc2nc(-c3cc4cc(F)ccc4oc3=O)[nH]c2c1 | inactive
38 | CCOc1ccccc1C1CC(=O)NC(C)=C1C(=O)OCc1ccc(C)cc1 (stereo not drawn) | inactive
39 | COc1ccc(-n2c(/C=C/c3cc(OC)c(OC)cc3OC)nc3cc4ccccc4cc3c2=O)cc1Cl | inconclusive [activator, single point]
40 | O=C(NCCc1ccccc1)c1ccc2c(c1)N(Cc1ccccc1)C(=O)c1ccccc1S2=O (stereo not drawn) | inconclusive [activator, partial curve, poor fit]
41 | CCCOCc1cc(CN2CCN(c3cccc(Cl)c3)CC2)c(O)c2ncccc12 | inconclusive [activator, partial curve, poor fit]
42 | Cc1ccc(CNC(=O)CN2C(=O)C3(SCC(=O)N3c3cc(C)cc(C)c3)c3ccccc32)cc1 (stereo not drawn) | inconclusive [activator, partial curve, poor fit]

Row | Structure (SMILES) | Potency
43 | COCc1cc(C)nc2sc3c(c12)NC(c1ccc(O)cc1)N(c1ccc(C)cc1)C3=O (stereo not drawn) | inconclusive [activator, single point]
44 | CC(C)C(NS(=O)(=O)c1cccc2cccnc12)C(=O)Nc1ccc(OC(F)(F)F)cc1 (stereo not drawn) | inactive
45 | CCOC(=O)c1ccc(NC(=O)CSc2ccc(-c3sc(C)nc3C)nn2)cc1 | inconclusive [activator, partial curve, poor fit]
46 | CCN(C(=O)CSc1nc2ccccc2nc1Cc1cccc(OC)c1)c1cccc(C)c1 | inconclusive [activator, single point]
47 | CCOc1ccc(S(=O)(=O)N(C(C)=O)c2ccc3oc(C)c(C(=O)OC)c3c2)cc1 | inactive
48 | O=C1c2ccccc2C(=O)C1(c1ccccc1)N1CCN(c2cccc(C(F)(F)F)c2)CC1 | inconclusive [activator, partial curve, poor fit]
49 | Cc1ccc(C2c3c(-c4ccccc4O)n[nH]c3C(=O)N2CCc2ccccc2)cc1 (stereo not drawn) | inconclusive [activator, single point]
50 | O=C(CSc1ncc(-c2ccccc2)[nH]1)Nc1ccc(F)cc1F | inactive
51 | Cc1ccc(C)c(N2CCN(C(=O)C3CCCN(S(=O)(=O)c4cccc5nonc45)C3)CC2)c1 (stereo not drawn) | inactive
52 | Cn1c(=O)c2c(n3c4ccccc4nc13)NC(=O)CC2c1cccc(Cl)c1 (stereo not drawn) | inconclusive [activator, partial curve, poor fit]
53 | CCN(Cc1ccccc1)Cc1c(O)ccc2c(=O)c(-c3ccc(Cl)cc3)coc12 | inconclusive [activator, partial curve, poor fit]
54 | COC(=O)CN1C(=O)CSc2ccc(S(=O)(=O)Nc3ccc(C(C)=O)cc3)cc21 | inconclusive [activator, single point]
55 | Cc1c(C(=O)N2CCC(C)CC2)c(S(=O)(=O)NCc2ccc(Cl)cc2)c(C)n1C | inconclusive [activator, single point]
56 | Cc1ccc(CC(=O)Nc2ccc3c(c2)N(C)C(=O)c2ccccc2S3)cc1 | inconclusive [activator, single point]
57 | O=C(CSc1nc2c([nH]c3ccccc32)c(=O)n1-c1ccc(F)cc1)NCC1CCCO1 (stereo not drawn) | inconclusive [activator, partial curve, poor fit]
58 | Cc1ccc(NC(=O)C2CCN(c3nc(-c4ccc(C(C)C)cc4)no3)CC2)c(Cl)c1 | inactive
59 | CCOC(=O)c1cnc2ccc(C)cc2c1Nc1ccc(N(CC)CC)cc1 | inactive
60 | Cc1ccc(Cl)cc1N1CCN(C(=O)c2cnn(C(C)(C)C)c2C2CCN(C(=O)OC(C)(C)C)CC2)CC1 | inactive
61 | CN(C(=O)c1c[nH]c2ccc(S(=O)(=O)Nc3cccc(C(F)(F)F)c3)cc2c1=O)C1CCCCC1 | inactive
62 | Cc1ccc(NC(=O)/C(C#N)=C\c2ccc(-c3ccc(Cl)cc3)o2)c(C)c1 | inconclusive [activator, partial curve, poor fit]
63 | O=C(CCS(=O)(=O)c1nc(-c2cccs2)cc(C(F)(F)F)n1)Nc1ccc(Br)cc1 | inconclusive [activator, partial curve, poor fit]
